Experimental findings from ChEMBL document CHEMBL4888484, “Replenishing the malaria drug discovery pipeline: Screening and hit evaluation of the MMV Hit Generation Library 1 (HGL1) against asexual blood stage Plasmodium falciparum ,using a nano luciferase reporter read-out” (2022) are described below.

Molecules are shown by their SMILES. The campaign covered roughly 150,000 compounds. About 540 (0.36%) showed an effect of 50% or more. This is one part of the list.

In the assay the test system is Plasmodium falciparum. The experiment in a line: Primary screen in NF54 nanoGlo assay, in single point, at 2uM, 72h; a lower Z score goes with more inhibition. Type of assay: functional, Erythrocyte. The conditions noted are these: timepoint 72 hour.
In the case of `CN(Cc1nc2c(F)cccc2[nH]1)C[C@H](O)COCc1ccccc1`, the “% Inhibition” value is listed as -3% and the Z score was determined as 0.46.

With `CN1CCN(c2ncc3c(=O)n(C4CCCC4)ccc3n2)CC1`, the “% Inhibition” value is reported as -16% and the Z score was 1.82.

On to `O=C(Nc1ccc(Cl)c(Cl)c1)OCc1cccs1`, for which the “% Inhibition” value is recorded as -5% and the Z score came out at 0.95.

`c1cc2c(cc1CNc1nc(N3CCOCC3)ns1)OCCO2`: the “% Inhibition” value worked out at 1% and the Z score is -0.17.

`CCc1ccc(Cn2nc(CC(N)=O)nc2CN2CCCN(C)CC2)cc1`: the “% Inhibition” value is given as -7% and the Z score was determined as 1.3.

`O=C(C[C@H]1CCOC1)NC1Cc2ccccc2C1`: the “% Inhibition” value was -14% and the Z score was 1.4.

In the case of `CN1CCCC[C@H]1C(=O)N(CCCC(=O)O)Cc1ccccc1`, the “% Inhibition” value stood at 8% and the Z score is recorded as -1.31.

As for `O=C(CN1CCC(O)CC1)N1CCC(c2ccccc2)=N1`, the “% Inhibition” value is on record as -5% and the Z score is recorded as 1.01.

In the case of `Nc1c(C(=O)O)noc1C(=O)c1ccccc1`, the “% Inhibition” value is on record as -5% and the Z score worked out at 0.67.

Take `O=C(c1ccc(Cl)cc1Cl)N1CC(c2nc(C3CC3)no2)C1`: the “% Inhibition” value was -15% and the Z score turned out to be 2.76.

Turning to `Clc1ccc(CN2CC[C@H](C3CCN(c4ncnc5[nH]ccc45)CC3)C2)cc1`, the “% Inhibition” value is listed as -8% and the Z score was 0.7.

Regarding `Cn1c(C(=O)N2CC[C@H](N)C2)ccc1-c1ccccc1Br`, the “% Inhibition” value amounted to 0% and the Z score came out at 0.05.

Regarding `O=C(O)[C@@]1(C/C=C/c2ccccc2)CCCN(c2ncnc3c2CCC3)C1`, the “% Inhibition” value is on record as -15% and the Z score turned out to be 1.51.

Turning to `COCC(NC(=O)NCCc1ccc2[nH]ccc2c1)C1CCCO1` (stereo unspecified), the “% Inhibition” value was -6% and the Z score is reported as 0.8.

Take `NC(=O)c1cccc(CN[C@H]2CCN(c3ccc(F)c(Cl)c3)C2)c1`: the “% Inhibition” value is recorded as 0% and the Z score is given as 0.

With `O=C1CN(C(=O)c2cc(O)nc3ccccc23)c2ccccc2N1`, the “% Inhibition” value is listed as -1% and the Z score is given as 0.19.

Regarding `Cc1nc(C(C)(C)N2CCOCC2)n(-c2ccc(Cl)cc2C)n1`, the “% Inhibition” value is recorded as -6% and the Z score was 0.73.

Regarding `O=C(Nc1cc(Cl)cc(Cl)c1)c1ccc2c3c(cccc13)CC2`, the “% Inhibition” value is reported as 5% and the Z score is given as -0.71.

Regarding `Cc1ccc(Cl)c(OCCN(C)C)c1C`, the “% Inhibition” value is -3% and the Z score was 0.6.

Turning to `CC[C@H](NC(=O)NCCC1(C)OCCO1)c1ccc(C)cc1`, the “% Inhibition” value is -8% and the Z score is given as 0.86.

In the case of `O=C(CC1CC2CCC1C2)N1CCN(c2cccc(C(F)(F)F)c2)CC1` (stereo unspecified), the “% Inhibition” value came out at 2% and the Z score was -0.23.

On to `CN(C)c1cc2c(cc1NC(=O)N1CCC3(CCO3)CC1)n(C)c(=O)n2C`, for which the “% Inhibition” value is recorded as 5% and the Z score is -0.78.

`Cc1nsc(N2CCC[C@H](C)CC2)n1`: the “% Inhibition” value is 4% and the Z score is listed as -0.68.

As for `Cc1ccc(C(=O)NC[C@@H]2CN(C)C(=O)[C@H](c3ccccc3)N2Cc2cccnc2)s1`, the “% Inhibition” value is recorded as -4% and the Z score is 0.54.

`Cc1ccccc1-n1nc(CC(C)C)nc1CC[C@H](C)N1CCN(C)CC1`: the “% Inhibition” value turned out to be 2% and the Z score was -0.24.

Regarding `Cc1cccc(-n2ncc3c(N4CCN([C@@H](c5ccccc5)c5ccc(Cl)cc5)CC4)ncnc32)c1`, the “% Inhibition” value was -2% and the Z score is given as 0.23.

In the case of `CC(NCC(C)(O)c1ccc(F)cc1)c1ccc(-n2cnnn2)cc1` (stereo unspecified), the “% Inhibition” value is reported as -2% and the Z score is on record as 0.21.

For `O=C(Cc1ccc(Br)cc1)Nc1nnc(C2CC2)s1`, the “% Inhibition” value came to 0% and the Z score amounted to 0.03.

As for `CO[C@H]1CCN(C(=O)c2cnnn2-c2cccc(Cl)c2Cl)C1`, the “% Inhibition” value is given as -12% and the Z score is 2.23.

Regarding `C[C@@H](CCN(C)C)NC(=O)Nc1ccc(C(F)(F)F)nn1`, the “% Inhibition” value is -5% and the Z score is listed as 0.61.

For the compound `Cc1noc(-c2cc(=O)[nH]c3ccccc23)n1`, the “% Inhibition” value is listed as 30% and the Z score is -4.02.

As to `C=CCOc1ccccc1CN1CC[C@H]2[C@H](CCC(=O)N2Cc2ccc(C(F)(F)F)cc2)C1`, the “% Inhibition” value is listed as -8% and the Z score was determined as 1.55.

On to `Cc1cnc(C2CCC2)n1C[C@H]1CCCN(C(=O)c2cccn2C)C1`, for which the “% Inhibition” value is -5% and the Z score was 0.91.

For `CN(Cc1cc(-c2ccccc2)[nH]n1)C(=O)c1cc(C2CC2)[nH]n1`, the “% Inhibition” value was -11% and the Z score stood at 2.09.

In the case of `CCOC1CC(Nc2nc(N)c3cnn(C)c3n2)C12CCCC2` (stereo unspecified), the “% Inhibition” value is recorded as -9% and the Z score is on record as 0.8.

Turning to `Cc1cc(C(=O)CN(C)Cc2nccn2CC(F)(F)F)c(C)[nH]1`, the “% Inhibition” value is listed as -4% and the Z score is 0.57.

With `Oc1cc(CCc2nc([C@H]3CCOC3)n[nH]2)on1`, the “% Inhibition” value is -4% and the Z score amounted to 0.78.

Consider `Cc1ccc(C2CN(C3CCN(C)C3=O)CCO2)c(C)c1` (stereo unspecified), for which the “% Inhibition” value is given as -3% and the Z score turned out to be 0.42.

For `O=S(=O)(CCC(F)(F)F)N1CCc2sc(Cl)cc2C1`, the “% Inhibition” value is recorded as -8% and the Z score is on record as 0.98.

Take `Cc1nc(C(C)C)sc1[C@H](C)NCC(C)(C)C1(O)CCOCC1`: the “% Inhibition” value was -6% and the Z score worked out at 0.86.

Consider `O=C(NC[C@H]1CCCO1)c1csc(-c2ccc(OCc3cccc(F)c3)cc2Cl)n1`, for which the “% Inhibition” value is -9% and the Z score came to 1.05.

For `COc1ccc(CC(=O)N(c2ccccc2)c2ccccc2)cc1`, the “% Inhibition” value was determined as 27% and the Z score is listed as -3.77.

Regarding `C[C@H]1Cc2cccc(F)c2N(Cc2cn(C)nn2)C1`, the “% Inhibition” value was -16% and the Z score turned out to be 1.65.
